From PubChem BioAssay AID360 (National Center for Advancing Translational Sciences (NCATS), 2006)
Hit rate of the full screen: of about 48,000 compounds, about 550 (1.1%) were called active. Not shown: some 4% with an inconclusive outcome. Cut-off read from the data, not from the text of the source: active = potency below about 15 µM; inconclusive = mostly about 16 µM to 33 µM; inactive = weaker than that. The list shows a part of the results.

biological target: Lysosomal acid glucosylceramidase (Homo sapiens) (UniProt P04062); test: Glucocerebrosidase; conditions: purified enzyme, resorufin glucoside fluorescence (screen aimed at inhibitors), 20 min;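 note: the screen sought inhibitors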
UniProt P04062, sequence (P04062 whole entry, looked up): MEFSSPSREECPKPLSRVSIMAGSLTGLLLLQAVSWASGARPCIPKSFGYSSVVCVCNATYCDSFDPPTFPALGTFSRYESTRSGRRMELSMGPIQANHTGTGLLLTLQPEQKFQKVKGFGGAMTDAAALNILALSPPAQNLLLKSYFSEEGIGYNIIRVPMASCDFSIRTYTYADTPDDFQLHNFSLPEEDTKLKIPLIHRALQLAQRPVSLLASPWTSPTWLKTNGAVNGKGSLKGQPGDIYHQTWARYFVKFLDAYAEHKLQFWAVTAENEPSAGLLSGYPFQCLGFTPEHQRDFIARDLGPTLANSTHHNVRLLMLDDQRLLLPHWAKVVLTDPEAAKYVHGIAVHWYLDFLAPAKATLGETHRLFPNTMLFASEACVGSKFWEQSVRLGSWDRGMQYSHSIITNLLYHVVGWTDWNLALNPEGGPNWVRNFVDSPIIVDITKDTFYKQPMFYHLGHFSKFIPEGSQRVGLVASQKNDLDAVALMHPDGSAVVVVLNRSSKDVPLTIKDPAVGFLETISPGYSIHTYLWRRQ
Method in brief: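 Compounds titrated against 0.2 nM normal enzyme, 30 uM resorufin beta-D-glucopyranoside substrate, citrate/phosphate buffer with taurocholate and tween-20, pH 5.9. Reaction ran 20 min at room temperature; fluorescence (Ex 548/Em 600) gave AC50.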
Potency is the fitted concentration of half-maximal effect.

Potency, inactive:
COc1ccc(Cc2nnc(SCC(=O)NCc3ccco3)o2)cc1 > 76.9 µM
Nc1nnc(CC(=O)NCc2ccccc2)s1 > 76.9 µM
COc1ccccc1OC(C)C(=O)O (stereo not given) > 76.9 µM
COc1cccc(-n2c(C)nc3c(cnn3-c3ccc(C)cc3)c2=O)c1 > 76.9 µM
O=C(c1cnn2c(C(F)F)cc(-c3ccccc3)nc12)N1CCOCC1 > 76.9 µM
CC(C)c1ccc(NC(=O)C(c2ccc3c(c2)OCO3)N2CCN(C(=O)c3ccco3)CC2)cc1 (stereo not given) > 76.9 µM
COc1c(Cl)ccc(Cl)c1C(=O)NC(=O)N1CCOCC1 > 76.9 µM
O=C(CCn1nc(-c2ccccc2)ccc1=O)N1CCOCC1 > 76.9 µM
CCc1ccc(S(=O)(=O)NCCc2csc(-c3ccccc3)n2)s1 > 76.9 µM
CCOc1ccc(CCNC(=O)CCc2nc(-c3ccc(C)cc3)no2)cc1OCC > 76.9 µM
Cc1ccc(/C=C/C2=Cc3c(sc(NC(=O)CSc4n[nH]c(N)n4)c3C#N)C(C)(C)C2)o1
CCC(Oc1ccc2ccccc2c1)C(=O)O (stereo not given) > 76.9 µM
O=c1[nH]c2ccccc2n1CCCOc1ccccc1 > 76.9 µM
COc1ccc2oc(=O)c(C(=O)N3CCN(c4ccccc4F)CC3)cc2c1 > 76.9 µM
O=C(CSc1nnc(CNC(=O)c2cccs2)o1)Nc1cccc(C(F)(F)F)c1 > 76.9 µM
CC(=NCCCn1ccnc1)C1=C(O)c2ccccc2C1=O > 76.9 µM
O=c1oc2c(CN3CCOCC3)c(O)c(Cl)cc2c2c1CCCC2 > 76.9 µM
CC1(C)Cc2cccc(OCC(=O)O)c2O1 > 76.9 µM
COc1cc(Nc2nc(SCC#N)nc3ccccc23)cc(OC)c1OC > 76.9 µM
O=C(CSc1nc2cc(Cl)ccc2s1)N1CCN(C(=O)c2ccco2)CC1 > 76.9 µM
Cc1nc2nc[nH]n2c(=O)c1CCC(C)C > 76.9 µM
N#CCC(=O)NCC1(c2ccccc2)CCCC1 > 76.9 µM
COc1ccc(CN2C(=O)c3cccnc3C2Nc2ccc(OC)c(Cl)c2)cc1 (stereo not given) > 76.9 µM
O=C(CCC(=O)Nc1nnc(C2CCCCC2)s1)NCc1cccs1 > 76.9 µM
CCC(=O)N1c2ccc(S(=O)(=O)N(CCO)Cc3ccccc3)cc2CC1C (stereo not given) > 76.9 µM
Cn1c(=O)[nH]c(=O)c2c1nc(N1CCN(Cc3ccccc3)CC1)n2CCCc1ccccc1 > 76.9 µM
CC1CC(=O)C2=C(C1)Nc1ccccc1N(C(=O)COc1ccccc1)C2c1ccco1 (stereo not given) > 76.9 µM
COc1cccc(OC)c1C(=O)Nc1ccc(S(=O)(=O)Nc2cc(C)nc(C)n2)cc1 > 76.9 µM
CCOC(=O)c1c(C)c(C(=O)N2CCN(c3cccc(Cl)c3)CC2)c(C)n1C > 76.9 µM
CCCCC12CN3CC(C)(CN(C1)C31C(=O)N(C)c3ccc(C)cc31)C2=O (stereo not given) > 76.9 µM
CCCCNC(=O)CC(=O)Nc1ccccc1C(=O)O > 76.9 µM
Nc1nonc1/C(=N/O)N1CCCC1 > 76.9 µM
COC(=O)c1cc(C(=O)OC)n(Cc2ccc(F)cc2)n1 > 76.9 µM
CCn1c(SCC(=O)c2ccc(Cl)cc2)nnc1C(C)C > 76.9 µM
COc1ccc2[nH]c(=O)c(CN(Cc3ccccc3)Cc3nnnn3CC3CCCO3)cc2c1 (stereo not given) > 76.9 µM
CC1=C(C(=O)NCc2ccccc2)C(c2ccc(C)o2)n2ncnc2N1 (stereo not given) > 76.9 µM
CCSc1nc(C)cc(Oc2ccc(=O)n(C)n2)n1 > 76.9 µM
O=C(CN1C(=O)CSc2ccccc21)NC1CCCC1 > 76.9 µM
O=C(Cn1cnc2c(nnn2Cc2ccccc2F)c1=O)N1CCN(c2ccccc2)CC1 > 76.9 µM
C=CCn1c(O)c(C(CC)=NCCN2CCOCC2)c(=O)[nH]c1=O > 76.9 µM
Cc1ccc(NC(=O)C2CCCN(S(=O)(=O)c3c(C)noc3C)C2)cc1F (stereo not given)
CC(=O)N1CCN(c2ccc(NCc3cccs3)cc2)CC1
CCCc1nc2ccccc2c(=O)n1/N=C/c1c(C)[nH]n(-c2ccc(C)cc2)c1=O > 76.9 µM
O=C(CNC(=O)c1ccc(Br)o1)Nc1cccc(-c2cnc3ccccc3n2)c1 > 76.9 µM
CCN1C(=O)c2ccc(C(=O)O)cc2C1=O > 76.9 µM
COc1ccc(-c2cc(C(F)(F)F)nc(SCCC(=O)Nc3cc(C)on3)n2)cc1 > 76.9 µM
CC(=O)c1c(C)[nH]c(C(=O)OCC(=O)Nc2ncc(Cl)c(C)c2Cl)c1C > 76.9 µM
CC1CCN(S(=O)(=O)c2ccc(S(=O)(=O)N3CCN4CCCC4C3)cc2)CC1 (stereo not given) > 76.9 µM
CC(C)c1nnc(NC(=O)CCC(=O)N2CCN(Cc3ccccc3)CC2)s1 > 76.9 µM
CCn1nnc(NC(=O)COc2cc(C)ccc2C(C)C)n1 > 76.9 µM
CCOC(=O)CC1=Nc2ccccc2NC(=O)C1 > 76.9 µM
CCOC(=O)c1ccc(S(=O)(=O)N2CCC(C(=O)OCC)CC2)cc1 > 76.9 µM
O=C(O)c1nc2ccccc2nc1C(=O)O > 76.9 µM
CS(=O)(=O)N(CC(=O)N1CCCCCC1)c1ccc2c(c1)OCCO2 > 76.9 µM
O=C(O)c1ccccc1SCc1ccc2c(c1)OCO2 > 76.9 µM
O=S(=O)(c1cccc(Cl)c1Cl)N1CCCCC1 > 76.9 µM
Cc1nn(C)c(C)c1CNC(=O)c1cnn2c1NC(c1ccccc1)CC2C(F)(F)F (stereo not given) > 76.9 µM
CCCC(C(=O)NCC1CCCO1)N(Cc1ccco1)C(=O)CNS(=O)(=O)c1ccc(F)cc1 (stereo not given) > 76.9 µM
CN(C)CCC(=O)c1ccc2c(c1)OCO2 > 76.9 µM
CCN1CCN(CCC(=O)Nc2ccccc2OC)CC1 > 76.9 µM
Cc1coc2cc3oc(=O)c4c(c3cc12)CCC4 > 76.9 µM
CCOc1ccc(NC(=O)C(C)O)c(NS(=O)(=O)c2ccc(CCNC(C)=O)cc2)c1 (stereo not given) > 76.9 µM
c1ccc2c(c1)nc(N1CCN(C3CCCCC3)CC1)c1nnnn12 > 76.9 µM
CC(C)(C)c1csc(NC(=O)CSc2nc3ccccc3c(=O)[nH]2)n1 > 76.9 µM
CSCC[C@H](NC(=O)CCn1nnc2ccccc2c1=O)C(=O)O > 76.9 µM
CCCCN(CC)CCNS(=O)(=O)c1ccc2c(c1)oc(=O)n2C > 76.9 µM
CCN(CCO)c1ccc(-n2c(N)c(C(=O)OC)c3nc4ccccc4nc32)cc1 > 76.9 µM
CCCCOc1ccc(C(=O)N2CCCCCC2)cc1 > 76.9 µM
CC(=O)Nc1ccc(NC(=O)Cn2cnc3c(cnn3C(C)(C)C)c2=O)cc1 > 76.9 µM
COc1ccc(OC)c(NC(=O)C(CC(=O)O)NCc2ccco2)c1 (stereo not given) > 76.9 µM
C=C(C)Cn1c(CCNC(=O)C(C)C)nc2ccccc21 > 76.9 µM
CN1CCN(C(=O)Nc2cccc3ccccc23)CC1 > 76.9 µM
N#CC1=C(N)Oc2nc(-c3ccccc3)[nH]c2C1c1cccnc1 (stereo not given) > 76.9 µM
CCOC(=O)N1CCN(C(=O)CSc2nnc(-c3cc(OC)ccc3OC)o2)CC1 > 76.9 µM
Cc1ccc(NS(=O)(=O)c2cc(C(=O)N3CCOCC3)ccc2C)cc1 > 76.9 µM
O=C(CSc1nnc(-c2cccs2)n1-c1ccccc1)c1ccc2c(c1)OCCO2 > 76.9 µM
CCOc1ccc(Cc2nnc(SCC(=O)c3ccc(OC)cc3)o2)cc1 > 76.9 µM
CCc1nc2ccccc2n(CC)c1=O > 76.9 µM
Cc1ccccc1N1C(=O)[C@@H]2Cc3ccccc3CN2C1=O > 76.9 µM
Cc1oc(-c2ccccc2)[n+]([O-])c1C > 76.9 µM
COCCn1cc(C(=O)N2CCCC(C)C2)c2c3ccccc3n(C)c2c1=O (stereo not given) > 76.9 µM
CC(C(=O)Nc1ccc(C(=O)O)cc1)N1C(=O)c2ccccc2C1=O (stereo not given) > 76.9 µM
Cc1cc(NC(=O)CCC(=O)N(Cc2cccs2)C(C(=O)NC2CCCC2)c2ccncc2)no1 (stereo not given) > 76.9 µM
COc1cc(OC)c(-c2nn3c(-c4cccnc4)nnc3s2)cc1OC > 76.9 µM
CCOC(=O)N1CCC(NC(=O)CCc2c(C)nc3c(c(C)nn3C(C)(C)C)c2C)CC1 > 76.9 µM
Cc1c(NC(=O)CCc2ccc(S(=O)(=O)N3CCOCC3)cc2)c(=O)n(-c2ccccc2)n1C > 76.9 µM
Cc1noc(C)c1C(=O)Nc1ccccc1-c1ccccc1 > 76.9 µM
O=C(c1cccs1)N(CC1CCCO1)c1nc(-c2ccccc2)cs1 (stereo not given) > 76.9 µM
COc1cccc(C2C=C(c3ccc(OC)cc3OC)Nc3nnnn32)c1 (stereo not given) > 76.9 µM
CCOc1ccc(-c2cc(C(=O)N3CCN(C)CC3)c3ccccc3n2)cc1 > 76.9 µM
